Hit rate of the full screen: of about 210,000 compounds, about 730 (0.35%) were called active. The shares of active, inactive and inconclusive entries below differ from those in the screen. The call rests on the fitted dose curve; in most records, active means well fitted inhibition curve with a large enough effect; inconclusive means small, poorly fitted or top-dose-only effect; inactive means no such curve, though single readings can be large or run the other way. A potency beside an inconclusive call is a rough fit, not a confirmed value.
Experiment: qHTS Assay for Identifying the Cell-Membrane Permeable IMPase Inhibitors: Potentiation with Lithium; further: nearly all actives have a fitted effect of over 50% in size;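 on activity, negative = IMPase inhibition: plate controls were basal vehicle for no effect and high inhibitor control for full effect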
Settings: CHO-M1 cells, IP1 TR-FRET (IP-One), carbachol + lithium; series mostly up to 59.4 µM; activity, negative = IMPase inhibition: at the top concentration
Method in brief: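 Lithium-sensitised IP1 accumulation assay; M1-expressing CHO cells treated 30 min at 37C with compound. Competitive antibody detection by time-resolved FRET followed a 10 min room-temperature lysis step.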
Potency means the concentration at half of the fitted maximal effect.

Compound	activity, negative = IMPase inhibition	Potency
CCOC(=O)c1c(-c2ccccc2)csc1NC(=O)C1CCCO1 (centres undefined)	inactive: 10.2% [at 38.3 µM]	
COc1ccc2oc(=O)c(-c3nnc(NCc4ccco4)s3)cc2c1		inconclusive: 22.4 µM [inhibitor, single point]
Cn1c(-c2ccco2)nc2cc3ccccc3cc21	inactive: -7.17% [at 38.3 µM]	
COc1ccc(/C(O)=C2/C(=O)C(=O)N(CCN(C)C)C2c2ccc(C)cc2)cc1Cl (centres undefined)		inconclusive: 28.2 µM [inhibitor, single point]
COc1cccc([C@@H]2Oc3ccc(OC)cc3C(=O)[C@H]2OC(=O)NS(=O)(=O)c2ccc(F)cc2)c1	inactive: 2.31%	
Cc1nnc(N2C(=O)C(O)=C(C(=O)c3ccco3)C2c2ccc(C(C)(C)C)cc2)s1 (centres undefined)		inconclusive: 10 µM [inhibitor, single point]
O=C(N/N=C/c1ccc(OC(=O)c2cccs2)cc1)c1ccc(F)cc1	inactive: -1.81% [at 38.3 µM]	
CCOP(=O)(OCC)c1nc(/C=C/c2ccccc2)oc1NCc1ccccc1		inconclusive: 12.6 µM [inhibitor, partial curve]
CCOc1ccc2oc(C(=O)OCC(=O)NC3CC3)c(C)c2c1		inconclusive: 22.4 µM [inhibitor, single point]
CCOC(=O)C1=C(CSc2nc(C)cc(C)c2C#N)OC(N)=C(C#N)C1c1ccccc1 (centres undefined)	inactive: 14.3% [at 38.3 µM]	
O=C(NCCC1=CCCCC1)c1cc(-c2ccccn2)nc2ccccc12		inconclusive: 5.01 µM [inhibitor, single point]
CCOC(=O)C1CCCN(C(=S)Nc2cc(C)cc(C)c2)C1 (centres undefined)	inactive: 2.33% [at 38.3 µM]	
Oc1ccc(C=NCC2COc3ccccc3O2)cc1 (centres undefined)	inactive: 5.12% [at 38.3 µM]	
CCc1nnc(NC(=O)CCN2C(=O)c3ccccc3C2=O)s1		inconclusive: 31.6 µM [inhibitor, single point]
O=C(Nc1ccccc1)c1cc2ccccc2c(=O)s1	inactive: -2.39%	
CCSc1nnc(NC(=O)c2csc3c2CCCC3)s1		inconclusive: 17.8 µM [inhibitor, single point]
CCOC(=O)c1sc2nc(Cc3ccc(Cl)cc3)[nH]c(=S)c2c1C		active: 7.94 µM
COc1ccc2cc(/C=N/NC(=O)CN(c3ccccc3)S(=O)(=O)c3ccccc3)c(Cl)nc2c1		inconclusive: 28.2 µM [inhibitor, single point]
CC1(O)CC(=O)N(c2ccccc2)O1 (centres undefined)	inactive: -14% [at 38.3 µM]	
COC(=O)[C@@]1(Cc2ccc(F)cc2)[C@H]2c3cc(C(=O)N4CCCC4)n(Cc4ccc(Cl)c(C(F)(F)F)c4)c3C[C@H]2CN1C(=O)c1ccccc1	inactive: 4.03%	
COc1ccc(/C(O)=C2\C(=O)C(=O)N(c3cc(C)on3)C2c2cccc(OC)c2OC)cc1C (centres undefined)		inconclusive: 11.2 µM [inhibitor, partial curve]
COc1cc(SC)ccc1C(=O)Nc1ccncc1		inconclusive: 14.1 µM [inhibitor, single point]
CCOc1ccc(Cc2n[nH]c(=S)n2N)cc1	inactive: 1.04%	
Cc1csc(NC(=O)CCCc2cccs2)n1	inactive: 0.64%	
Fc1cccc(NC(=S)NCc2ccccn2)c1	inactive: -6.39%	

Compound	activity, negative = IMPase inhibition	Potency
CC(=O)C(C(C)=O)C1(O)C(=O)c2ccccc2C1=O	inactive: 4.83%	
CCOc1ccc(NC(=O)CSc2ncnc3c2sc2ccccc23)cc1		inconclusive: 22.4 µM [inhibitor, single point]
Cc1ccc2cc(C#N)c(SCC(=O)N3CCCc4ccccc43)nc2c1		inconclusive: 2.82 µM [inhibitor, single point]
CCCCn1c(SCC(=O)Nc2ccccc2C(F)(F)F)nc2ccsc2c1=O		inconclusive: 28.2 µM [inhibitor, single point]
CCCCN(C)S(=O)(=O)c1ccc(C(=O)N(CCN(C)C)c2nc3ccc(C)cc3s2)cc1	inactive: 2.8%	
CN(C)/C=C1\C(=O)N(C)N=C1C(F)(F)F		inconclusive: 1.26 µM [inhibitor, partial curve]
NS(=O)(=O)c1ccc(NC(=S)NC2CCCCC2)cc1	inactive: -0.472%	
CC(C)(C)NC(=O)c1sccc1C(=O)O		inconclusive: 12.6 µM [inhibitor, partial curve]
CS(=O)(=O)C1=C(O)C(=O)N(CCCC(=O)O)C1c1ccccc1F (centres undefined)		inconclusive: 35.5 µM [inhibitor, partial curve, poor fit]
O=C(O)c1ccccc1-c1c2ccc(=O)cc-2oc2cc(O)ccc12	inactive: -29%	
CC(=O)c1sc(NC(=O)COc2ccccc2)nc1C		active: 10 µM
COc1ccc(N=C2NN=C(c3ccc4c(c3)OCCO4)CS2)cc1		inconclusive: 28.2 µM [inhibitor, single point]
CCOC(=O)c1nn(-c2ccc3c(c2)CCN3C(C)=O)cc1O		inconclusive: 2 µM [inhibitor, partial curve, poor fit]
O=C(COC(=O)c1cccnc1SCC(=O)NCc1ccccc1)NCc1ccccc1		inconclusive: 20 µM [inhibitor, single point]
CCCCn1c(NC(C)=O)c(C#N)c2nc3ccccc3nc21		inconclusive: 10 µM [inhibitor, partial curve]
O=C(COC(=O)c1ncc(Cl)c(Cl)c1Cl)c1ccc(Cl)s1		inconclusive: 31.6 µM [inhibitor, single point]
O=C(Nc1ccc(NC(=O)c2ccco2)nc1)c1ccccn1		inconclusive: 11.2 µM [inhibitor, single point]
NCC1O[C@@H](OC2C(N)CC(N)C(O)C2O[C@@H]2OC(CO)C(O)C2O)C(N)C(O)C1O (some centres undefined)	inactive: 104%	
COc1ccc(S(=O)(=O)NCC(=O)O)cc1C(=O)NC1CCCCC1	inactive: -2.48%	
CC(=O)N1CCCc2cc(S(=O)(=O)NC(C(=O)NC(C)c3ccccc3)C(C)C)ccc21 (centres undefined)		inconclusive: 10 µM [inhibitor, partial curve]
COCCn1c(=O)c(-c2ccc(OC)cc2)nc2cnc(Oc3cccc(Cl)c3)nc21		inconclusive: 28.2 µM [inhibitor, single point]
CCCSc1ncnc2c1oc1ccccc12		inconclusive: 0.282 µM [inhibitor, full curve, poor fit]
Cn1c(=O)c(-c2ccc(Cl)cc2)nc2cnc(OCc3ccccc3)nc21		inconclusive: 5.01 µM [inhibitor, partial curve]
CCNc1ncc2nc(-c3ccccc3)c(=O)n(C)c2n1		inconclusive: 11.2 µM [inhibitor, partial curve]
CC(=O)Nc1ccc(S(=O)(=O)Oc2ccc3c(c2)C(C)=CC(C)(C)N3)cc1	inactive: 12.5%	

Compound	activity, negative = IMPase inhibition	Potency
O=C(COc1ccc(Br)cc1)Nc1ccc([N+](=O)[O-])cn1		inconclusive: 11.2 µM [inhibitor, single point]
Nc1ccc2nc(-c3ccccc3)[nH]c2c1		inconclusive: 11.2 µM [inhibitor, partial curve]
COCCCN1C(=O)C(=O)/C(=C(/O)c2ccc(OC)cc2)C12C(=O)N(C)c1ccccc12 (centres undefined)		inconclusive: 10 µM [inhibitor, partial curve]
Cc1cc2occ(CC(=O)Nc3nnc(C4CC4)s3)c2cc1C		inconclusive: 28.2 µM [inhibitor, single point]
O=C(CCSc1nnc2ccc3ccccc3n12)Nc1ccc(F)cc1		active: 11.2 µM
CCc1nnc2sc(-c3ccc(NC(=O)c4ccc5c(c4)OCCO5)cc3)nn12		inconclusive: 28.2 µM [inhibitor, single point]
N#Cc1ccc(C23CC4CC(CC(C4)C2)C3)[nH]c1=O		inconclusive: 28.2 µM [inhibitor, single point]
Fc1ccc(-n2c(-c3ccc4ccccc4n3)n[nH]c2=S)cc1Cl		active: 2.82 µM
CC(C)n1cnc2cc(NCc3ccccn3)ccc21	inactive: 33.2% [at 38.3 µM]	
COc1ccc(-c2nc3cnc(OC)nc3n(Cc3cccc(OC)c3)c2=O)cc1		inconclusive: 22.4 µM [inhibitor, single point]
O=c1c(-c2ccccc2)nc2cnc(Nc3ccccc3)nc2n1Cc1cccs1		inconclusive: 11.2 µM [inhibitor, single point]
CCOc1cc2[nH]c(=S)n(CCCC(=O)NCc3ccco3)c(=O)c2cc1OCC		active: 14.1 µM
COc1ccccc1CN1C(=O)c2ccccc2C1C(=O)NC1CCC(C)CC1 (centres undefined)		inconclusive: 5.01 µM [inhibitor, full curve]
Cc1cc(=O)oc2cc(OCC(=O)Nc3cccc(S(=O)(=O)N(C)C)c3)ccc12		inconclusive: 28.2 µM [inhibitor, single point]
Cc1ccc(NC(=O)c2cc(NC(=O)c3ccccc3C(=O)O)ccc2N2CCCCC2)cc1	inactive: 2.38%	
COc1ccc(NCc2nnc(SCC(=O)Nc3cc(C)cc(C)c3)o2)cc1	inactive: 41.2% [at 38.3 µM]	
S=c1nc[nH]c2c1sc1nc(N3CCOCC3)c3c(c12)CCCC3		active: 11.2 µM
COc1ccccc1NC(=O)NCC(c1ccco1)N1CCCCC1 (centres undefined)		inconclusive: 5.01 µM [inhibitor, single point]
CCn1nnc(-c2ccccc2NC(=O)c2cccc(-n3cnnn3)c2)n1		inconclusive: 28.2 µM [inhibitor, single point]
Cc1ccc(-n2c(-c3ccco3)nc3c(cnn3-c3ccc(C)cc3)c2=O)cc1		inconclusive: 28.2 µM [inhibitor, single point]
O=C(N/N=C/c1ccc[nH]1)c1sc2ccccc2c1Cl	inactive: 4.77% [at 38.3 µM]	
Cc1ccc(C)c(NC(=O)c2cc3ccccn3n2)c1	inactive: 7.47% [at 38.3 µM]	
COC(=O)c1c(NC(=S)Nc2ccccc2Cl)sc(C)c1C		inconclusive: 10 µM [inhibitor, partial curve]
COc1ccc(Cc2nnc3c4cnn(C)c4ncn23)cc1	inactive: 22.6% [at 38.3 µM]	
